# Reference: PubChem BioAssay (NCI)
# Where “and” joins values, the source holds several entries; their conditions need not be identical. Equal values may be shown once.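 Results reflect a 48-hour exposure of cells in 96-well plates to compound at five concentrations. At the GI50, growth is halved. TGI denotes the concentration required for complete inhibition of growth.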
# Tested on: NCI-H322M lung
# Assay: inhibition of tumour cell growth, NCI panel, 48 h
Structure (SMILES),TGI,GI50
CCCCCCCCCCCCCCCCCCNc1ccn(C2OC(COP(=O)(O)OCC3OC(n4cc(C)c(=O)[nH]c4=O)CC3O)C(O)C2O)c(=O)n1 (stereo not drawn),37.1 µM,–
CCCCN(CCCC)CC(C(=O)Nc1ccc([N+](=O)[O-])cc1[N+](=O)[O-])/C(C)=N\NC(=S)NN (stereo not drawn),> 100 µM,–
CC(=O)OCc1cc(CCC(=O)NCCNc2c3ccccc3nc3ccccc23)cc(COC(C)=O)c1O[Si](C)(C)C(C)(C)C,28.9 µM,–
COCCOCc1nc(C#N)c(N)o1,> 100 µM,–
Cc1cc(=O)[nH]c(NN2C(Cl)C(=O)C2c2cccc(O)c2)n1 (stereo not drawn),> 100 µM,–
CN(C)Cc1cc(C(=O)/C=C/c2ccc(Cl)cc2)cc(CN(C)C)c1O,43.9 µM,–
COc1ccc(/C=C(/C(=O)c2ccc(Cl)cc2)N2C=CC=CC2=C(C#N)C#N)cc1OC,42.2 µM,–
CCCCCN=Cc1c(O)c(O)c(C(C)C)c2cc(C)c(-c3c(C)cc4c(C(C)C)c(O)c(O)c(C=NCCCCC)c4c3O)c(O)c12,> 100 µM,–
Cc1cc(C)c(S(=O)(=O)N2CCCN(S(=O)(=O)c3c(C)cc(C)cc3C)OCCCON(S(=O)(=O)c3c(C)cc(C)cc3C)CCCN(S(=O)(=O)c3c(C)cc(C)cc3C)OCCCO2)c(C)c1,> 100 µM,–
CNCCNc1c2c(c(NCCNC)c3c(CN(C)C)c[nH]c13)C(=O)c1ccccc1C2=O,4.48 µM,1.29 µM
CC(=O)Nc1ccc(C(=O)NN2C(=O)C(Cl)C2c2ccccc2)cc1 (stereo not drawn),> 100 µM,–
O=S(=O)(Nc1cc(F)cc(Cl)c1)c1ccc(-c2cnc(C3CC3)o2)cc1,25.7 µM,7.98 µM
CCSc1n/c(=C\c2ccco2)c2nnnn12,> 100 µM,–
COc1cc(/C=C2\CCC(C)C3C2=NN(C(C)=O)C3c2cc(OC)c(OC)c(OC)c2)cc(OC)c1OC (stereo not drawn),> 100 µM,–
C#Cc1cccc(Nc2ncnc3cc(OC)c(OCCCCCCC(=O)NO)cc23)c1,0.416 µM,0.0698 µM
Oc1ccc(Cl)cc1Cc1cc(Cl)cc(Cl)c1O,55.6 µM,7.27 µM
CCOC(CCNCC(OCC)OCC)OCC,> 10 µM,–
COC(=O)C1=C(c2ccc3c(c2)OCO3)O[C@H](c2cc(OC)c(OC)c(OC)c2)[C@H]1COC(C)=O,> 100 µM,–
CC1OC2CC(=O)OC2C2=C1C(=O)c1c(O)cccc1C2=O (stereo not drawn),2.13 µM,0.814 µM
O=c1[nH]c(-c2ccc3ccccc3c2)nc2ccccc12,> 100 µM,–
COC(=O)c1cc2c3ccccc3n(C(C)=O)c2cn1,> 100 µM,–
CN(c1ccc(Cl)cc1)S(=O)(=O)c1ccc([N+](=O)[O-])cc1,> 100 µM,–
CC(=O)Oc1cccc2c(/C=N/NC(N)=S)ncc(C)c12,12.5 µM,–
COC(=O)C(C)(NC(=O)C(CC(=O)OC(C)(C)C)NC(=O)OC(C)(C)C)c1ccccc1 (stereo not drawn),> 100 µM,–

Structure (SMILES),TGI,GI50
CCC(=O)NC(Nc1cccc(F)c1C)(C(F)(F)F)C(F)(F)F,> 100 µM,–
O=C(/C=C/c1ccc(O)cc1)OC[C@@H](O)COC1OC(CO)C(O)C(O)C1O (stereo partly drawn),> 100 µM,–
CC1=CC(/C=C(\C)CCCc2ccoc2)C2(OC(=O)C(C)=C2O)[C@H]2C1CC[C@@H]2C (stereo partly drawn),70.1 µM,–
C=C(CCCCC)CN1CCCC1[C@@](C)(O)CC(=O)OCC (stereo partly drawn),> 100 µM,–
CC(C)(C)C(=O)OCC1CCC[N+]2(C)CCCCC12 (stereo not drawn),> 100 µM,–
Cc1cc(Br)cc(C)c1NC(=O)C(=O)C(C(=O)c1ccc2ccccc2c1)C1OC(=O)c2ccccc21 (stereo not drawn),29.8 µM,–
C[C@]12CC[C@H](O)CC1=CC[C@@H]1[C@@H]2CC[C@]2(C)C(=O)[C@@H](N3CCOCC3)C[C@@H]12,> 100 µM,–
COc1ccc(CC2c3cc(Oc4cc(CC5c6cc(OC)c(OC)cc6CCN5C)ccc4O)c(OC)cc3CCN2C)cc1 (stereo not drawn),14.3 µM,–
O=C(OC(=O)n1ccc2ccccc21)n1ccc2ccccc21,> 100 µM,–
C=C(C)[C@@]12OC3(/C=C/C=C/CCCCC)O[C@@H]1[C@@H]1[C@@H]4O[C@]4(CO)[C@@H](O)[C@]4(O)C(=O)C(C)=C[C@H]4[C@@]1(O3)[C@H](C)[C@H]2OC(=O)c1ccccc1,5.14 µM,1.94 µM
COC(=O)c1cc2c(cc1O)[C@@H](NC(C)=O)CCc1cc(OC)c(OC)c(OC)c1-2,> 100 µM,0.059 µM
C=CC1CC12C(=O)C1OC2(C)C2C(=O)c3cc4ccccc4cc3C(=O)C12 (stereo not drawn),> 100 µM,38.1 µM
Oc1ccc2ccccc2c1/C=C/c1ccc2c(Br)cc(Br)c(O)c2n1,21.7 µM,–
O=C(c1ccccc1)c1cc(Cl)ccc1OCCCCN1CCN(CCCCOc2ccc(Cl)cc2C(=O)c2ccccc2)CC1,21.4 µM,8.47 µM
CCOC(=O)Oc1c(OC)cc(C(=O)NC2CCc3cc(OC)c(OC)c(OC)c3-c3ccc(SC)c(=O)cc32)cc1OC (stereo not drawn),> 70 µM,0.0311 µM
OCCN1CN(CCO)CN(c2nc(N3CN(CCO)CN(CCO)C3)nc(N3CN(CCO)CN(CCO)C3)n2)C1,0.106 µg/mL,0.00121 µg/mL
CC(C)=C[C@@H]1C[C@H](C)[C@H]2CC[C@H](C)C3=C2[C@](O)(OC3=O)[C@]1(C)O,> 100 µM,> 100 µM
CC(C)C1OC23CCCCC2C(C#N)(C#N)C1(C#N)C(=N)O3 (stereo not drawn),> 100 µM,–
Cc1ccc(Cl)cc1Nc1nc(C(F)(F)F)ccc1C(=O)N1CCN(c2ccc(F)cc2)CC1,29.3 µM,11.7 µM
O=C(CC(=O)Nc1cccc(C(=O)O)c1)Nc1cccc(C(=O)O)c1,> 100 µM,–
C=CC(Br)(CBr)CCC(Cl)C(C)C (stereo not drawn),19.2 µM,–
Clc1coc2nc3ccccc3c(Nc3ccc4c(c3)OCO4)c12,9.78 µM,1.84 µM
CN1C(=O)N/C(=C\c2ccc(S(=O)(=O)NN)cc2)C1=O,> 100 µM,–
Cc1nc(N)sc1-c1ccnc(Nc2ccc(N3CCOCC3)cc2)n1,> 100 µM,3.52 µM

Structure (SMILES),TGI,GI50
COC(=O)Cc1cc(O)c(C/C=C(\C)CC/C=C(\C)C(O)C(=O)C=C(C)C)cc1O (stereo not drawn),> 100 µM,–
CCn1c(-c2cc(OC)cc(OC)c2)nc2c1C(=O)c1ccccc1C2=O,> 100 µM,–
Cn1cc(C2=C(c3ccc4ccccc4c3)C(=O)NC2=O)c2ccccc21,> 25 µM,> 25 µM
S=C(c1c[nH]c2ccccc12)N1CCOCC1,> 100 µM,–
CC(=O)OC1CCC2(C)C3CCC4(C)C(c5ccc(=O)oc5)CC5OC54C3CCC2(O)C1 (stereo not drawn),4.71 µM,–
CC(=O)O.CC(=O)O.CC(=O)O.CC(=O)O.CC(=O)O.CC(=O)O.O.[Ti].[Ti],> 100 µM,> 100 µM
C/C1=C\CC[C@@]2(C)O[C@@H]2[C@H]2OC(=O)[C@@H](CN(C)C)[C@@H]2CC1,33.8 µM,18.1 µM
CC[N+](CC)(CCNCC(N)=O)CC(N)=O,> 10 µM,–
CC1=Nc2ccccc2C1C(Cc1ccccc1N)c1c(C)[nH]c2ccccc12 (stereo not drawn),35.9 µM,–
CC1OC(n2cc(F)c(=O)[nH]c2=O)C=CC1O (stereo not drawn),> 100 µM,–
c1ccc(N=C2SC(=NC3CCCCC3)N(C3CCCCC3)C2=Nc2ccccc2)cc1,> 100 µM,–
C[As](C)SC1OC(CO)C(O)C1O (stereo not drawn),18.3 µM,6.01 µM
CCC[CH2][Sn]([CH2]CCC)([CH2]CCC)[O]C(=O)CC,0.379 µM,0.175 µM
COc1nc(C(=O)NNC(=O)c2nc(OC)c3ccccc3c2-c2ccccc2)c(-c2ccccc2)c2ccccc12,> 100 µM,–
O=c1nc2occc2cn1C1CC(O)C(CO)O1 (stereo not drawn),> 100 µM,–
COc1ccc(C2S/C(=C\c3ccccc3O)C(=O)N2NC(=O)Cc2ccccc2)cc1 (stereo not drawn),> 100 µM,–
NS(=O)(=O)c1nn2c(Br)c(-c3ccccc3)nc2s1,11.6 µM,–
CNn1c(-c2ccccc2)n[nH]c1=O,> 100 µM,–
O=c1c2ccccc2[se]n1-c1cccnc1,> 100 µM,–
S=C(NCc1ccccc1)c1nc[nH]c1C(=S)NCc1ccccc1,21.6 µM,–
Cn1c(=O)c2c(nc(Nc3cc(=O)[nH]c(=O)[nH]3)n2Cc2ccccc2)n(C)c1=O,> 100 µM,> 100 µM
N#C/C(C(=O)Nc1ccccc1)=C(/N)N1CCOCC1,> 100 µM,–
Cc1ccc(S(=O)(=O)NCC2CCCCC2=O)cc1 (stereo not drawn),> 100 µM,–
CC(C)c1ccc(Nc2ccc3c(OCCCN4CCN(C)CC4)cccc3n2)cc1,23.6 µM,11 µM

Structure (SMILES),TGI,GI50
O=C(O/N=C1/CCCC/C1=C\c1ccccc1)c1ccccc1,> 100 µM,–
COc1ccc(N(C)c2ncnc3occ(C)c23)cc1,> 100 µM,–
O=[n+]1c2c(n([O-])c3ccccc31)CCCCCCCCCC2,> 100 µM,–
Cc1ccc(C(SCC(N)C(=O)O)(c2ccccc2)c2ccc(C)cc2)cc1 (stereo not drawn),37.7 µM,0.0928 µM
CCC1(CC)SCc2nc3ccccc3n21,> 100 µM,–
CSc1nc2c(nc(C)c(=O)n2C2OCC(OC(C)=O)C(OC(C)=O)C2OC(C)=O)c(=O)[nH]1 (stereo not drawn),> 100 µM,–
COc1ccc2c(c1)CCC1C2CC[C@@]2(C)C1CC1=CC(COC(C)=O)C3C(=O)c4ccccc4C(=O)C3C12 (stereo partly drawn),> 100 µM,> 100 µM
CC[C@]12C=CCN3CC[C@@]4(c5ccc(OC)cc5N(C)[C@H]4[C@@](O)(C(=O)OC)[C@@H]1OC(=O)CCC[P+](c1ccccc1)(c1ccccc1)c1ccccc1)[C@@H]32,8.88 µM and 14.1 µM,2.29 µM and 3.26 µM
O=C1N=c2ccccc2=C1c1c(O)[nH]c2ccccc12,> 100 µM,–
CC(C)(C)C(=O)OCOP(=O)(OCOC(=O)C(C)(C)C)C1CCCN(O)C1=O (stereo not drawn),8.5 µM,0.673 µM
O=C(O)c1nc(-c2ccccc2)ncc1-c1nnnn1-c1ccccc1,> 100 µM,–
CN(c1ccc(Cl)cc1)S(=O)(=O)c1cccc([N+](=O)[O-])c1,> 100 µM,–
COc1ccccc1C1C(C(=O)O)=C(CO)Oc2cc3c(cc21)OCO3 (stereo not drawn),> 100 µM,–
Cc1ccc(SC(C)/C=C/NNC2=NC(c3ccccc3)C(c3ccccc3)=NN2)cc1 (stereo not drawn),> 100 µM,–
C[C@@H]1C[C@H]2[C@@H]3CCC4=CC(=O)C=C[C@]4(C)[C@@]3(Cl)[C@@H](Cl)C[C@]2(C)[C@@]1(O)C(=O)COP(=O)(O)O,> 100 µM,–
CC1CC=CC(O)C1 (stereo not drawn),> 100 µM,–
O=[N+]([O-])c1ccc(/C=N/n2c(CO)nc3ccccc32)o1,23.7 µM,–
O=C1c2ccccc2C(=O)C1(Cl)C1(S(=O)(=O)O)c2ccccc2-c2ccccc21,> 100 µM,–
Oc1[nH]c2ccccc2c1N=Nc1ccccc1Cl,> 100 µM,–
O=C(CCCn1ccnc1[N+](=O)[O-])NCCn1cncc1[N+](=O)[O-],> 100 µM,–
O/N=C1/COC(C(F)(F)F)(C(F)(F)F)C1,> 100 µM,–
O=c1n(CC2CO2)c(=O)n(CC2CO2)c(=O)n1CC1CO1 (stereo not drawn),119 µM and 41.3 µM,50.1 µM and 17.1 µM
COc1ccc2nc3ccc(OC)cc3c(S(=O)CCCl)c2c1 (stereo not drawn),30.3 µM,–
COc1ccc(N=C2SC(=N/N=c3\sc4ccccc4n3C)SC2=Nc2ccc(OC)cc2)cc1,> 100 µM,–
